Data from a collection of fitness landscapes (doi:10.1126/science.1257360).
Some of the results follow.

B1: PhoQ; a variant is named by its letters at X, in order, P23837 (parent)
chain: MKKLLRLFFPLSLRVRFLLATAAVVLVLSLAYGMVALIGYSVSFDKTTFRLLRGESNLFYTLAKWENNKLHVELPENIDKQSPTMTLIYDENGQLLWAQRDVPWLMKMIQPDWLKSNGFHEIEADVNDTSLLLSGDHSIQQQLQEVREDDDDAEMTHSVAVNVYPATSRMPKLTIVVVDTIPVELKSSYMVWSWFIYVLSANLLLVIPLLWVAAWWSLRPIEALAKEVRELEEHNRELLNPATTRELTSLVRNLNRLLKSERERYDKYRTTLTDLTHSLKTPLXXLQXXLRSLRSEKMSVSDAEPVMLEQISRISQQIGYYLHRASMRGGTLLSRELHPVAPLLDNLTSALNKVYQRKGVNISLDISPEISFVGEQNDFVEVMGNVLDNACKYCLEFVEISARQTDEHLYIVVEDDGPGIPLSKREVIFDRGQRVDTLRPGQGVGLAVAREITEQYEGKIVAGESMLGGARMEVIFGRQHSAPKDE

Variants of: B1
Assay: enrichment ratio after two sorts for PhoP signalling (ratio (wild type AVST 3.29)); higher = more functional
Details: with PhoP (E. coli)

Row | Variant | enrichment ratio
1 | VMRQ | ≤ 0.25
2 | YQQN | ≤ 0.25
3 | LLPN | ≤ 0.25
4 | PVAH | ≤ 0.25
5 | DMGW | 5.27
6 | CSWD | ≤ 0.25
7 | VQSY | ≤ 0.25
8 | ICTM | ≤ 0.25
9 | QFGL | ≤ 0.25
10 | QSFC | 2.23
11 | WWFQ | ≤ 0.25
12 | HQWH | ≤ 0.25
13 | TKCL | 14.6
14 | MLKP | ≤ 0.25
15 | HGHA | ≤ 0.25
16 | YEGM | ≤ 0.25
17 | MPEP | ≤ 0.25
18 | KCWH | ≤ 0.25
19 | AWHP | ≤ 0.25
20 | MNLV | 4.5
21 | MTSQ | 1.32
22 | IWNN | ≤ 0.25
23 | SEWE | ≤ 0.25
24 | FTWH | ≤ 0.25
25 | NLYK | ≤ 0.25

Row | Variant | enrichment ratio
26 | DADQ | ≤ 0.25
27 | SGQW | ≤ 0.25
28 | SFDS | ≤ 0.25
29 | HKDW | ≤ 0.25
30 | FMPA | ≤ 0.25
31 | DFQM | ≤ 0.25
32 | DPDE | ≤ 0.25
33 | NDAF | ≤ 0.25
34 | AKAT | 3.68
35 | LSHY | 0.255
36 | MYTS | ≤ 0.25
37 | DWLK | ≤ 0.25
38 | TVVN | ≤ 0.25
39 | GCPW | ≤ 0.25
40 | HCEK | ≤ 0.25
41 | ICKN | ≤ 0.25
42 | QRSS | ≤ 0.25
43 | THCI | 7.06
44 | YSRD | ≤ 0.25
45 | RAKQ | ≤ 0.25
46 | DIFQ | ≤ 0.25
47 | NHAP | ≤ 0.25
48 | AGHF | ≤ 0.25
49 | KILQ | ≤ 0.25
50 | SDEV | ≤ 0.25

Row | Variant | enrichment ratio
51 | QDWF | ≤ 0.25
52 | MARS | ≤ 0.25
53 | DTRA | 2.13
54 | NRDY | ≤ 0.25
55 | DQED | ≤ 0.25
56 | RNFV | ≤ 0.25
57 | CTAT | ≤ 0.25
58 | SVPF | ≤ 0.25
59 | WGVA | ≤ 0.25
60 | PAWS | ≤ 0.25
61 | MAAY | ≤ 0.25
62 | EHHA | ≤ 0.25
63 | QRYR | ≤ 0.25
64 | SSKM | ≤ 0.25
65 | AANN | ≤ 0.25
66 | EEIR | ≤ 0.25
67 | NYTA | ≤ 0.25
68 | SWFH | ≤ 0.25
69 | YMTG | ≤ 0.25
70 | AHFH | ≤ 0.25
71 | HDNF | ≤ 0.25
72 | LQQQ | ≤ 0.25
73 | TKNI | 13.3
74 | NTPT | ≤ 0.25
75 | SILN | 8.2

Row | Variant | enrichment ratio
76 | KGGH | ≤ 0.25
77 | NHPD | ≤ 0.25
78 | YNCF | ≤ 0.25
79 | THLQ | 5.68
80 | LYRM | 0.329
81 | TIKH | ≤ 0.25
82 | QMYK | ≤ 0.25
83 | RNNS | ≤ 0.25
84 | QNTP | ≤ 0.25
85 | PVNM | ≤ 0.25
86 | TASW | ≤ 0.25
87 | AEYS | 1.65
88 | MMPA | ≤ 0.25
89 | RGMY | ≤ 0.25
90 | MMPM | ≤ 0.25
91 | APKR | ≤ 0.25
92 | HQYT | ≤ 0.25
93 | EAFN | ≤ 0.25
94 | VGNV | ≤ 0.25
95 | ADIC | 4.63
96 | FWEE | ≤ 0.25
97 | RNQE | ≤ 0.25
98 | TSEM | 9.83
99 | QEAQ | ≤ 0.25
100 | HAVN | ≤ 0.25

Row | Variant | enrichment ratio
101 | SNPM | 0.306
102 | WTWM | ≤ 0.25
103 | QSFF | 1.05
104 | APLP | ≤ 0.25
105 | IDYG | ≤ 0.25
106 | IHGK | ≤ 0.25
107 | FMFD | ≤ 0.25
108 | QGFY | 4.24
109 | TVIS | ≤ 0.25
110 | YIFT | ≤ 0.25
111 | FGRN | ≤ 0.25
112 | TGSS | 11
113 | DTYY | ≤ 0.25
114 | ESYI | ≤ 0.25
115 | SKGK | ≤ 0.25
116 | RKWD | ≤ 0.25
117 | LPTC | ≤ 0.25
118 | FGGT | ≤ 0.25
119 | CSLY | 0.296
120 | LRCC | ≤ 0.25
121 | RAHI | ≤ 0.25
122 | FKKA | ≤ 0.25
123 | VNWY | ≤ 0.25
124 | MDRK | ≤ 0.25
125 | SWES | ≤ 0.25

Row | Variant | enrichment ratio
126 | YDQL | ≤ 0.25
127 | WSWV | ≤ 0.25
128 | INLY | ≤ 0.25
129 | ERIY | ≤ 0.25
130 | DPIN | ≤ 0.25
131 | FYNV | ≤ 0.25
132 | ASPH | ≤ 0.25
133 | AEGP | ≤ 0.25
134 | TKHL | 1.82
135 | WGST | ≤ 0.25
136 | TFRP | ≤ 0.25
137 | VLIY | ≤ 0.25
138 | FHHH | ≤ 0.25
139 | FCAL | ≤ 0.25
140 | SLDS | ≤ 0.25
141 | NKPA | ≤ 0.25
142 | YHVS | ≤ 0.25
143 | DHIM | ≤ 0.25
144 | LWNT | ≤ 0.25
145 | TPED | ≤ 0.25
146 | TEEP | ≤ 0.25
147 | LARP | ≤ 0.25
148 | PRYI | ≤ 0.25
149 | SWKR | ≤ 0.25
150 | HKPF | ≤ 0.25

Row | Variant | enrichment ratio
151 | VTIS | ≤ 0.25
152 | VWGQ | ≤ 0.25
153 | HPYN | ≤ 0.25
154 | QPDI | ≤ 0.25
155 | EELA | ≤ 0.25
156 | WDAF | ≤ 0.25
157 | MPGR | ≤ 0.25
158 | WQAN | ≤ 0.25
159 | PTFE | ≤ 0.25
160 | SWSK | ≤ 0.25
161 | PAPK | ≤ 0.25
162 | HDDP | ≤ 0.25
163 | MFNG | ≤ 0.25
164 | QGNN | ≤ 0.25
165 | TKWG | ≤ 0.25
166 | MFCS | ≤ 0.25
167 | LGHR | ≤ 0.25
168 | MPRT | ≤ 0.25
169 | TKLM | 21.3
170 | SKMA | 3.27
171 | HDMC | ≤ 0.25
172 | YMQV | ≤ 0.25
173 | SLTK | 0.362
174 | NNSD | ≤ 0.25
175 | IIPS | ≤ 0.25

Row | Variant | enrichment ratio
176 | HRKH | ≤ 0.25
177 | DIVS | ≤ 0.25
178 | TLKL | ≤ 0.25
179 | FIWP | ≤ 0.25
180 | IVAS | ≤ 0.25
181 | QAAW | ≤ 0.25
182 | ASEL | 3.67
183 | PMMN | ≤ 0.25
184 | EDTV | ≤ 0.25
185 | DDLG | ≤ 0.25
186 | PLDL | ≤ 0.25
187 | PWMY | ≤ 0.25
188 | VGWC | ≤ 0.25
189 | PFEE | ≤ 0.25
190 | SMCI | 14.3
191 | TNKI | ≤ 0.25
192 | CFPY | ≤ 0.25
193 | WQSY | ≤ 0.25
194 | IACD | ≤ 0.25
195 | SFFM | ≤ 0.25
